Laboratory results as given in the antibiotic and cytotoxicity screens of Wong et al. (2023).
This is one part of the list.

Key:
HSkMC = human skeletal muscle cells; assay: cytotoxicity call (relative viability < 0.9); settings: 10 µM
HepG2 = assay: cytotoxicity call (relative viability < 0.9); settings: 10 µM
S. aureus RN4220 = assay: growth inhibition call (relative growth <= 0.2); settings: 50 µM

| Compound | cytotoxicity call (HSkMC) | cytotoxicity call (HepG2) | growth inhibition call (S. aureus RN4220) |
| --- | --- | --- | --- |
| CC(=O)O[C@@H]1[C@H](OC(C)=O)N(C(C)=O)C(=O)N1C(C)=O | inactive | inactive | inactive |
| C[C@@H]1CN([C@H](C)CO)C(=O)Cc2cc(NC(=O)Nc3cccc4ccccc34)ccc2O[C@H]1CN(C)C(=O)Nc1ccc2c(c1)OCO2 | inactive | inactive | inactive |
| C[C@@H]1CN([C@H](C)CO)S(=O)(=O)c2ccc(C#Cc3ccncc3)cc2O[C@H]1CN(C)C(=O)Nc1ccc2c(c1)OCO2 | inactive | inactive | inactive |
| C[C@H](CO)N1C[C@H](C)[C@@H](CN(C)C(=O)Nc2ccc(F)cc2)OCCCC[C@H](C)Oc2ccc(NC(=O)CCC(F)(F)F)cc2C1=O | inactive | inactive | inactive |
| C[C@@H]1CCCCO[C@H](CN(C)Cc2ccc(C(F)(F)F)cc2)[C@@H](C)CN([C@@H](C)CO)C(=O)c2cc(NS(=O)(=O)c3ccc(F)cc3)ccc2O1 | inactive | inactive | inactive |
| COc1ccc(S(=O)(=O)Nc2ccc3c(c2)C(=O)N([C@@H](C)CO)C[C@@H](C)[C@@H](CN(C)CC2CCCCC2)OCCCC[C@H](C)O3)cc1 | inactive | active | inactive |
| Cc1noc(C)c1S(=O)(=O)N(C)C[C@H]1Oc2ccc(NC(=O)C3CCCCC3)cc2CC(=O)N([C@@H](C)CO)C[C@@H]1C | inactive | inactive | inactive |
| C=CCNC(=O)[C@@H]1[C@H]2C(=O)O[C@H](c3ccccc3)[C@H](c3ccccc3)N2[C@H](c2ccccc2OCCO)[C@@]12C(=O)Nc1ccc(C#Cc3ccc(OC)cc3)cc12 | inactive | inactive | inactive |
| C[C@@H]1CCCCO[C@@H](CN(C)C(=O)Nc2ccccc2)[C@H](C)CN([C@@H](C)CO)C(=O)c2cc(NC(=O)Nc3ccccc3)ccc2O1 | inactive | inactive | inactive |
| COc1cc2c(cc1OC)CN(CCc1ccc(NC(=O)c3cc(OC)c(OC)cc3NC(=O)c3cnc4ccccc4c3)cc1)CC2 | inactive | active | inactive |
| CCc1nc2ccc(C(=O)Nc3cc(-c4ccccc4)ccc3OC)cn2c1N(C)Cc1ccc(Cl)cc1 | inactive | inactive | inactive |
| C[C@H]1CCCCO[C@@H](CN(C)C(=O)NC2CCCCC2)[C@@H](C)CN([C@@H](C)CO)C(=O)c2cc(NC(=O)Nc3ccccc3)ccc2O1 | inactive | inactive | inactive |
| C[C@@H]1CN([C@H](C)CO)C(=O)c2cc(NC(=O)NC3CCCCC3)ccc2O[C@@H](C)CCCCO[C@@H]1CN(C)Cc1ccc(C(=O)O)cc1 | inactive | inactive | inactive |
| Cc1ccc(S(=O)(=O)N(C)C[C@@H]2Oc3ccc(NC(=O)Cn4cnnn4)cc3CC(=O)N([C@H](C)CO)C[C@H]2C)cc1 | inactive | inactive | inactive |
| Cc1[nH]c(=O)c(C#N)cc1-c1ccncc1 | inactive | inactive | inactive |
| COc1cccc(S(=O)(=O)N[C@@H]2C=C[C@@H](CC(=O)NC3CCC3)O[C@H]2CO)c1 | inactive | inactive | inactive |
| C[C@H](CO)N1C[C@H](C)[C@H](CN(C)C(=O)Nc2cccc3ccccc23)Oc2c(NC(=O)Nc3cccc4ccccc34)cccc2C1=O | inactive | inactive | inactive |
| Cc1noc(C)c1NC(=O)N(C)C[C@H]1OCCCC[C@@H](C)Oc2ccc(NC(=O)Nc3ccc(C(F)(F)F)cc3)cc2C(=O)N([C@@H](C)CO)C[C@H]1C | inactive | inactive | inactive |

| Compound | cytotoxicity call (HSkMC) | cytotoxicity call (HepG2) | growth inhibition call (S. aureus RN4220) |
| --- | --- | --- | --- |
| C[C@@H]1CCCCO[C@@H](CN(C)C(=O)Nc2ccc(F)cc2)[C@@H](C)CN([C@H](C)CO)C(=O)c2cc(NS(=O)(=O)c3ccc(F)cc3)ccc2O1 | inactive | inactive | inactive |
| Cc1cc(C(=O)Nc2cccc3c2O[C@H](CN(C)S(=O)(=O)c2ccccc2)[C@H](C)CN([C@H](C)CO)C3=O)n(C)n1 | inactive | inactive | inactive |
| C[C@H](CO)N1C[C@H](C)[C@@H](CN(C)C(=O)Nc2ccc(C(F)(F)F)cc2)Oc2c(NC(=O)c3ccc(-c4nccs4)cc3)cccc2C1=O | inactive | inactive | inactive |
| C[C@@H]1CN([C@H](C)CO)S(=O)(=O)c2ccc(-c3ccncc3)cc2O[C@H]1CN(C)C(=O)c1cccc(F)c1 | inactive | inactive | inactive |
| C[C@H]1CN([C@@H](C)CO)C(=O)c2cc(NC(=O)Nc3ccc4c(c3)OCO4)ccc2O[C@H]1CN(C)S(C)(=O)=O | inactive | inactive | inactive |
| C[C@@H]1CN([C@@H](C)CO)S(=O)(=O)c2ccc(C#Cc3ccc(F)cc3)cc2O[C@@H]1CN(C)CC1CC1 | inactive | inactive | inactive |
| O=C(C[C@@H]1CC[C@H]2[C@@H](COC[C@@H](O)CN2S(=O)(=O)c2ccc(F)cc2)O1)N[C@@H]1CCN(Cc2ccccc2)C1 | inactive | inactive | inactive |
| N[C@H]1CCN(c2ccc(C(F)(F)F)cn2)C1 | inactive | inactive | inactive |
| COc1ccc(S(=O)(=O)N(C)C[C@H]2Oc3ccc(NC(=O)CCN4CCOCC4)cc3C(=O)N([C@H](C)CO)C[C@H]2C)cc1 | inactive | inactive | inactive |
| O=C(C[C@H]1NCCNC1=O)Nc1ccc2c(c1)OCCO2 | inactive | inactive | inactive |
| Cc1noc(C)c1NC(=O)N(C)C[C@@H]1Oc2ccc(NC(=O)C3CC3)cc2CC(=O)N([C@@H](C)CO)C[C@@H]1C | inactive | inactive | inactive |
| O=C(C[C@H]1CC[C@H]2[C@@H](COC[C@@H](O)CN2S(=O)(=O)c2ccccc2)O1)NCCN1CCCC1 | inactive | inactive | inactive |
| C[C@H](CO)N1C[C@H](C)[C@H](CN(C)S(=O)(=O)c2cccs2)Oc2ncc(C#CC(C)(C)O)cc2C1=O | inactive | inactive | inactive |
| C[C@H]1CN([C@@H](C)CO)C(=O)c2cc(NC(=O)Cc3ccccc3)ccc2O[C@H]1CN(C)C(=O)Nc1cccc2ccccc12 | inactive | inactive | inactive |
| COc1ccc(CCN2C(=O)[C@@]3(c4ccc([N+](=O)[O-])cc4)CC(=O)N(CC45CC6CC(CC(C6)C4)C5)[C@@H]3c3ccc(CO)cc32)cc1 | inactive | inactive | inactive |
| COc1cc2c(cc1OC)-c1onc(-c3ccc(OCCO[Si](C(C)C)(C(C)C)C(C)C)cc3)c1CCCN(C[C@@H](C)OC(=O)NCCCCCC(=O)NO)CC2 | inactive | active | inactive |
| Cc1ccc(S(=O)(=O)Nc2ccc3c(c2)C(=O)N([C@H](C)CO)C[C@H](C)[C@@H](CN(C)Cc2ccc(Cl)c(Cl)c2)O3)cc1 | inactive | active | inactive |
| Cl.Cl.NCCCCN | inactive | inactive | inactive |
